{
  "source": "the supplement of paper PMC8728848",
  "binders": {"B1": {"name": "Arath Fbox (Arabidopsis thaliana), NP_178341.1 (protein)", "chain": "EFTWGRKRRVKSESSPFDSFPEDCISYIISFTNPRDACVAATVSKTFESTVKSDIIWEKFLPADYESLIPPSRVFSSKKELYFSLCNDPVLFDDDKKSVWLEKASGKRCLMLSAMNLSIIWGDNPQYWQWIPIPESRFEKVAKLRDVCWFEIRGRTNTRVLSPRTRYSAYIVFKGVDKCYGFQNVAIEAAVGVVGQEPSRRLICFSEAIRRGRRNVVKPKQREDGWMEIELGEFFNDGGIMDNDEIEMSALETKQLNRKCGLIIQGIEIRPAKILAAAAASFLEQKLISEEDLNSAVDHHHHHH"}},
  "experiment_in_all_cases": "glycan array binding signal (z-score within array); higher = stronger binding",
  "conditions_in_all_cases": "glycan notation: IUPAC condensed, linker removed",
  "key": {"[1]": {"molecular_target": "Fuc(a1-2)[GalNAc(a1-3)]Gal(b1-3)GlcNAc(b1-3)GalNAc", "procedure,_shortened": "(§1)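 The Consortium for Functional Glycomics database supplied 3228 glycan arrays, of which those lacking an available protein sequence were dropped. The binding signal, a within-array Z-score, was averaged across arrays of the same protein sequence and across linkers. Negative scores can be read as non-binding.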"}, "[2]": {"molecular_target": "Fuc(a1-2)[GalNAc(a1-3)]Gal(b1-3)GlcNAc(b1-6)GalNAc", "procedure,_shortened": "as §1"}, "[3]": {"molecular_target": "Fuc(a1-2)[GalNAc(a1-3)]Gal(b1-4)Glc", "procedure,_shortened": "as §1"}, "[4]": {"molecular_target": "Fuc(a1-2)[GalNAc(a1-3)]Gal(b1-4)GlcNAc", "procedure,_shortened": "as §1"}, "[5]": {"molecular_target": "Fuc(a1-2)[GalNAc(a1-3)]Gal(b1-4)GlcNAc(b1-2)Man", "procedure,_shortened": "as §1"}, "[6]": {"molecular_target": "Fuc(a1-2)[GalNAc(a1-3)]Gal(b1-4)GlcNAc(b1-2)Man(a1-3)[Fuc(a1-2)[GalNAc(a1-3)]Gal(b1-4)GlcNAc(b1-2)Man(a1-6)]Man(b1-4)GlcNAc(b1-4)GlcNAc", "procedure,_shortened": "as §1"}, "[7]": {"molecular_target": "Fuc(a1-2)[GalNAc(a1-3)]Gal(b1-4)GlcNAc(b1-2)Man(a1-3)[Fuc(a1-2)[GalNAc(a1-3)]Gal(b1-4)GlcNAc(b1-2)Man(a1-6)]Man(b1-4)GlcNAc(b1-4)[Fuc(a1-6)]GlcNAc", "procedure,_shortened": "as §1"}, "[8]": {"molecular_target": "Fuc(a1-2)[GalNAc(a1-3)]Gal(b1-4)GlcNAc(b1-3)Gal(b1-4)GlcNAc", "procedure,_shortened": "as §1"}, "[9]": {"molecular_target": "Fuc(a1-2)[GalNAc(a1-3)]Gal(b1-4)GlcNAc(b1-3)Gal(b1-4)GlcNAc(b1-3)Gal(b1-4)GlcNAc", "procedure,_shortened": "as §1"}, "[10]": {"molecular_target": "Fuc(a1-2)[GalNAc(a1-3)]Gal(b1-4)GlcNAc(b1-3)GalNAc", "procedure,_shortened": "as §1"}, "[11]": {"molecular_target": "Fuc(a1-2)[GalNAc(a1-3)]Gal(b1-4)GlcNAc(b1-3)[Fuc(a1-2)[GalNAc(a1-3)]Gal(b1-4)GlcNAc(b1-6)]GalNAc", "procedure,_shortened": "as §1"}, "[12]": {"molecular_target": "Fuc(a1-2)[GalNAc(a1-3)]Gal(b1-4)GlcNAc(b1-6)GalNAc", "procedure,_shortened": "as §1"}, "[13]": {"molecular_target": "Fuc(a1-2)[GalNAc(a1-3)]Gal(b1-4)[Fuc(a1-3)]GlcNAc", "procedure,_shortened": "as §1"}, "[14]": {"molecular_target": "Fuc(a1-2)[GalNAc(a1-3)]Gal(b1-4)[Fuc(a1-3)]GlcNAc(b1-3)GalNAc", "procedure,_shortened": "as §1"}, "[15]": {"molecular_target": "Fuc(a1-2)[GalNAc(a1-4)]Gal(b1-4)GlcNAc", "procedure,_shortened": "as §1"}, "[16]": {"molecular_target": "Fuc(a1-2)[GalNAc(b1-3)]Gal", "procedure,_shortened": "as §1"}, "Fuc(a1-3)GlcNAc": {"molecular_target": "Fuc(a1-3)GlcNAc", "procedure,_shortened": "as §1"}, "[17]": {"molecular_target": "Fuc(a1-3)[Gal(b1-4)]Glc6S", "procedure,_shortened": "as §1"}, "[18]": {"molecular_target": "Fuc(a1-3)[Gal(b1-4)]GlcNAc", "procedure,_shortened": "as §1"}, "[19]": {"molecular_target": "Fuc(a1-3)[Gal(b1-4)]GlcNAc(b1-2)Man", "procedure,_shortened": "as §1"}, "[20]": {"molecular_target": "Fuc(a1-3)[Gal(b1-4)]GlcNAc(b1-2)Man(a1-3)[Fuc(a1-3)[Gal(b1-4)]GlcNAc(b1-2)Man(a1-6)]Man(b1-4)GlcNAc(b1-4)GlcNAc", "procedure,_shortened": "as §1"}, "[21]": {"molecular_target": "Fuc(a1-3)[Gal(b1-4)]GlcNAc(b1-2)Man(a1-3)[Fuc(a1-3)[Gal(b1-4)]GlcNAc(b1-2)Man(a1-6)]Man(b1-4)GlcNAc(b1-4)[Fuc(a1-6)]GlcNAc", "procedure,_shortened": "as §1"}, "[22]": {"molecular_target": "Fuc(a1-3)[Gal(b1-4)]GlcNAc(b1-3)Gal(b1-3)[Fuc(a1-4)]GlcNAc", "procedure,_shortened": "as §1"}, "[23]": {"molecular_target": "Fuc(a1-3)[Gal(b1-4)]GlcNAc(b1-3)Gal(b1-4)[Fuc(a1-3)]GlcNAc", "procedure,_shortened": "as §1"}, "[24]": {"molecular_target": "Fuc(a1-3)[Gal(b1-4)]GlcNAc(b1-3)Gal(b1-4)[Fuc(a1-3)]GlcNAc(b1-3)Gal(b1-4)[Fuc(a1-3)]GlcNAc", "procedure,_shortened": "as §1"}, "[25]": {"molecular_target": "Fuc(a1-3)[Gal(b1-4)]GlcNAc(b1-3)GalNAc", "procedure,_shortened": "as §1"}, "[26]": {"molecular_target": "Fuc(a1-3)[Gal(b1-4)]GlcNAc(b1-6)GalNAc", "procedure,_shortened": "as §1"}, "[27]": {"molecular_target": "Fuc(a1-3)[Gal(b1-4)]GlcNAc(b1-6)[Gal(b1-3)GlcNAc(b1-3)]Gal(b1-4)Glc", "procedure,_shortened": "as §1"}, "[28]": {"molecular_target": "Fuc(a1-3)[Gal(b1-4)]GlcNAc6S", "procedure,_shortened": "as §1"}, "[29]": {"molecular_target": "Fuc(a1-3)[Gal3S(b1-4)]Glc", "procedure,_shortened": "as §1"}, "[30]": {"molecular_target": "Fuc(a1-3)[Gal3S(b1-4)]GlcNAc", "procedure,_shortened": "as §1"}, "[31]": {"molecular_target": "Fuc(a1-3)[Gal3S(b1-4)]GlcNAc6S", "procedure,_shortened": "as §1"}, "[32]": {"molecular_target": "Fuc(a1-3)[GalNAc(b1-4)]GlcNAc", "procedure,_shortened": "as §1"}, "[33]": {"molecular_target": "Fuc(a1-3)[GalNAc(b1-4)]GlcNAc6S", "procedure,_shortened": "as §1"}, "Fuc(a1-4)GlcNAc": {"molecular_target": "Fuc(a1-4)GlcNAc", "procedure,_shortened": "as §1"}, "Fuc(b1-3)GlcNAc": {"molecular_target": "Fuc(b1-3)GlcNAc", "procedure,_shortened": "as §1"}, "Gal(a1-2)Gal": {"molecular_target": "Gal(a1-2)Gal", "procedure,_shortened": "as §1"}},
  "note": "This is one part of the list.",
  "data": [
    {"binder": "B1", "values": [
      {"measurement": "glycan array binding signal (z-score)", "setting": "[1]", "result": -0.618},
      {"measurement": "glycan array binding signal (z-score)", "setting": "[2]", "result": -0.626},
      {"measurement": "glycan array binding signal (z-score)", "setting": "[3]", "result": -0.466},
      {"measurement": "glycan array binding signal (z-score)", "setting": "[4]", "result": -0.433},
      {"measurement": "glycan array binding signal (z-score)", "setting": "[5]", "result": -0.212},
      {"measurement": "glycan array binding signal (z-score)", "setting": "[6]", "result": -0.526},
      {"measurement": "glycan array binding signal (z-score)", "setting": "[7]", "result": -0.087},
      {"measurement": "glycan array binding signal (z-score)", "setting": "[8]", "result": -0.64},
      {"measurement": "glycan array binding signal (z-score)", "setting": "[9]", "result": -0.193},
      {"measurement": "glycan array binding signal (z-score)", "setting": "[10]", "result": -0.334},
      {"measurement": "glycan array binding signal (z-score)", "setting": "[11]", "result": -0.551},
      {"measurement": "glycan array binding signal (z-score)", "setting": "[12]", "result": -0.711},
      {"measurement": "glycan array binding signal (z-score)", "setting": "[13]", "result": 0.178},
      {"measurement": "glycan array binding signal (z-score)", "setting": "[14]", "result": 0.337},
      {"measurement": "glycan array binding signal (z-score)", "setting": "[15]", "result": -0.487},
      {"measurement": "glycan array binding signal (z-score)", "setting": "[16]", "result": -0.288},
      {"measurement": "glycan array binding signal (z-score)", "setting": "Fuc(a1-3)GlcNAc", "result": 0.046},
      {"measurement": "glycan array binding signal (z-score)", "setting": "[17]", "result": 2.06},
      {"measurement": "glycan array binding signal (z-score)", "setting": "[18]", "result": -0.12},
      {"measurement": "glycan array binding signal (z-score)", "setting": "[19]", "result": -0.173},
      {"measurement": "glycan array binding signal (z-score)", "setting": "[20]", "result": 1.77},
      {"measurement": "glycan array binding signal (z-score)", "setting": "[21]", "result": 0.433},
      {"measurement": "glycan array binding signal (z-score)", "setting": "[22]", "result": -0.705},
      {"measurement": "glycan array binding signal (z-score)", "setting": "[23]", "result": -0.261},
      {"measurement": "glycan array binding signal (z-score)", "setting": "[24]", "result": 0.559},
      {"measurement": "glycan array binding signal (z-score)", "setting": "[25]", "result": -0.303},
      {"measurement": "glycan array binding signal (z-score)", "setting": "[26]", "result": 0.534},
      {"measurement": "glycan array binding signal (z-score)", "setting": "[27]", "result": -0.589},
      {"measurement": "glycan array binding signal (z-score)", "setting": "[28]", "result": -0.353},
      {"measurement": "glycan array binding signal (z-score)", "setting": "[29]", "result": -0.311},
      {"measurement": "glycan array binding signal (z-score)", "setting": "[30]", "result": 0.068},
      {"measurement": "glycan array binding signal (z-score)", "setting": "[31]", "result": -0.591},
      {"measurement": "glycan array binding signal (z-score)", "setting": "[32]", "result": -0.567},
      {"measurement": "glycan array binding signal (z-score)", "setting": "[33]", "result": -0.504},
      {"measurement": "glycan array binding signal (z-score)", "setting": "Fuc(a1-4)GlcNAc", "result": -0.702},
      {"measurement": "glycan array binding signal (z-score)", "setting": "Fuc(b1-3)GlcNAc", "result": -0.389},
      {"measurement": "glycan array binding signal (z-score)", "setting": "Gal(a1-2)Gal", "result": 0.171}
    ]}
  ]
}
